# Assay results from PubChem BioAssay AID588855 (National Center for Advancing Translational Sciences (NCATS), 2011).
# Screen size: about 410,000 compounds; about 5,000 (1.2%) were called active. The inconclusive results got no clear call from the source; some entries with a clear call stand among them for comparison. Calls come from the whole dose curve; as a rule, active = well fitted inhibition curve with a large enough effect; inconclusive = small, poorly fitted or top-dose-only effect; inactive = no such curve, though single readings can be large or run the other way. Potencies of inconclusive entries are doubtful fits and often do not repeat.
# Test: qHTS for Inhibitors of TGF-b; note: nearly all actives have a fitted effect of over 65% in size
# Settings: HepG2 CAGA-GFP TGF-b/SMAD3 reporter, GFP fluorescence, 18 h, TGF-beta stimulated, 500 pg/mL final; series mostly up to 46.1 µM
# In short: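 Smad-responsive CAGA-GFP expression was quantified in HEPG2 cells exposed to compounds and 500 pg/mL final TGF-beta for 18 h at 37 degrees C; unstimulated wells defined full inhibition.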
# Potency is the fitted concentration of half-maximal effect; tags give direction and shape of the fitted curve.
row,SMILES,Potency
1,COc1ccc(C)cc1NC(=O)COCc1cc(-c2cccs2)on1,"inconclusive: 5.62 µM [inhibitor, single point]"
2,O=C(NCc1ccccc1)c1ccc(/C=N/O)nc1,inactive
3,Cc1cc(C)c(S(=O)(=O)N2CCN(C(=O)c3ccccc3OCc3c(C)noc3C)CC2)c(C)c1,"inconclusive: 22.4 µM [inhibitor, single point]"
4,Cc1nn(-c2ccccc2)c2ncc(C(=O)c3cc(Cl)ccc3O)cc12,"inconclusive: 28.2 µM [inhibitor, single point]"
5,COc1ccc(NC(=O)CN2CCCN(S(=O)(=O)c3ccc(Br)cc3)CC2)c(OC)c1,"inconclusive: 22.4 µM [inhibitor, single point]"
6,CCOC(=O)c1ccc(NC(=O)CCS(=O)(=O)c2ccc(C)cc2)cc1,"inconclusive: 15.8 µM [inhibitor, single point]"
7,O=C1c2ccccc2C(c2nc3ccccc3[nH]2)N1c1ccccn1 (stereo unspecified),inactive
8,CC(C)(C)N(Cc1ccccc1)C(=O)CCc1ccccc1,inactive
9,CCN(CC)S(=O)(=O)c1ccc(-c2nnc(SCC(=O)N3c4ccccc4CC3C)n2CC)cc1 (stereo unspecified),"inconclusive: 5.62 µM [inhibitor, partial curve, poor fit]"
10,CCC(C)(C)n1nnnc1C(c1cc2ccc(OC)cc2[nH]c1=O)N1CCc2ccccc21 (stereo unspecified),"inconclusive: 35.5 µM [inhibitor, single point]"
11,CCn1c(C)nc2cc(C(=O)NNC(=S)NC(=O)c3ccccc3)ccc21,inactive
12,COc1ccc(S(=O)(=O)N(C)C[C@@H]2OCCCC[C@@H](C)Oc3ccc(NS(=O)(=O)c4cccs4)cc3C(=O)N([C@H](C)CO)C[C@@H]2C)cc1,inactive
13,CCOC(=O)c1c(C)[nH]c(C(=O)OCC(=O)Nc2cc(C)nn2-c2ccccc2)c1C,inactive
14,CN(C(=O)CCc1nnc(CCCCc2ccccc2)o1)C1CC(C)(C)NC(C)(C)C1,inactive
15,O=S(=O)(NCCc1ccncc1)c1ccc(S(=O)(=O)N2CCCCCC2)cc1,inactive
16,COC(=O)CC1Oc2ccc(F)cc2-n2cc(-c3ccc(Cl)cc3)nc21 (stereo unspecified),"inconclusive: 3.98 µM [inhibitor, full curve, poor fit]"
17,Cc1ccnc(NC(=O)c2cc3ccccc3oc2=O)c1,inactive
18,Cc1cc(C)cc(Nc2cc(C(=O)NCCCN(Cc3ccccc3)C(C)C)c3ccccc3n2)c1,inactive
19,NNc1nc2c(Cl)cccc2s1,"inconclusive: 22.4 µM [inhibitor, single point]"
20,CN(C)CCCN(C(=O)CCOc1ccccc1)c1nc2c(F)cccc2s1,"inconclusive: 7.08 µM [inhibitor, partial curve, poor fit]"
21,Cc1nc2c(C(=O)NCc3ccc(F)cc3)c[nH]n2c(=O)c1Cl,inactive
22,O=C(c1ccc(S(=O)(=O)N2CCOCC2)cc1)N1CCN(S(=O)(=O)c2ccc(Cl)s2)CC1,inactive

row,SMILES,Potency
1,CCOC(=O)c1sc(NC(=O)CSc2nc3c(cc2C#N)CCCCC3)c(C#N)c1C,"inconclusive: 6.31 µM [inhibitor, single point]"
2,Cc1ccc(CNC(=O)C2CCC(CNS(=O)(=O)c3ccc4c(c3)CCCC(=O)N4)CC2)cc1 (stereo unspecified),"inconclusive: 0.398 µM [inhibitor, full curve, poor fit]"
3,COc1cc(OC)cc(C(=O)Nc2sc3c(c2C(N)=O)CCC3)c1,inactive
4,Cc1ccccc1NS(=O)(=O)CCCCC(Cl)(Cl)Cl,"inconclusive: 35.5 µM [inhibitor, single point]"
5,CCOc1cc(-c2noc(CCC(=O)NCCc3ccccc3)n2)ccc1OC,"inconclusive: 1.78 µM [inhibitor, partial curve, poor fit]"
6,Cc1ccc(C(c2nnnn2C(C)(C)C)N(Cc2ccco2)Cc2cccs2)cc1 (stereo unspecified),"inconclusive: 12.6 µM [inhibitor, partial curve, poor fit]"
7,CCCOc1ccccc1N/C(=N/c1nc(C)cc(C)n1)NC(=O)COc1ccc(OC)cc1,active: 10 µM
8,O=C1Nc2cc(C(=O)NCCCN3CCCC3)ccc2S/C1=C/c1ccccc1F,"inconclusive: 35.5 µM [inhibitor, single point]"
9,CCN1C(=O)/C(=C/C=C2/Sc3ccccc3N2CCO)SC1=S,inactive
10,CCc1ccccc1N(C(=O)c1snc(C(N)=O)c1N)C(C(=O)NCC1CCCO1)c1c[nH]c2ccccc12 (stereo unspecified),"inconclusive: 14.1 µM [inhibitor, single point]"
11,COc1ccccc1CNC(=O)CN1C(=O)NC(c2ccccc2)(c2ccc(C)c(C)c2)C1=O (stereo unspecified),"inconclusive: 12.6 µM [inhibitor, partial curve, poor fit]"
12,CCOC(=O)c1cnc(SCC(=O)Nc2cc(C(F)(F)F)ccc2N2CCOCC2)nc1N,inactive
13,Cc1ccc(C)c(CN2C(=O)c3ccccc3S(=O)c3ccc(C(=O)N4CCC(C)CC4)cc32)c1 (stereo unspecified),"inconclusive: 0.141 µM [inhibitor, full curve, poor fit]"
14,COc1ccc(CNc2oc(-c3ccc(COc4ccc(Cl)cc4)o3)nc2C#N)cc1,"inconclusive: 35.5 µM [inhibitor, single point]"
15,CCOC(=O)c1cccc(NC(=O)c2cc(S(=O)(=O)N3CCCCCC3)cn2C)c1,"inconclusive: 35.5 µM [inhibitor, partial curve, poor fit]"
16,Cc1cccc(N/N=C/c2ccccc2O)c1,"inconclusive: 25.1 µM [inhibitor, single point]"
17,Cc1c(CNCc2ccc(OC(C)C)cc2)c(C(=O)O)c(C)n1Cc1ccc(Cl)cc1,inactive
18,CCN1CCN(CCCNC(=O)c2cc3c(=O)n(CC)c4ccccc4c3s2)CC1,"inconclusive: 17.8 µM [inhibitor, single point]"
19,COc1ccc(-c2cc(C(F)(F)F)nc(SCC(=O)N(C)Cc3ccccc3)n2)cc1OC,"inconclusive: 0.398 µM [inhibitor, full curve]"
20,Cc1c(C(=O)NNC(=S)NCc2ccc(Cl)cc2)oc2ccccc12,"inconclusive: 35.5 µM [inhibitor, single point]"
21,Cc1cc(-c2c(C)[nH]n(-c3ccc(Cl)cc3)c2=O)n[nH]1,inactive
22,Cc1ccc(Cn2c(SCC(=O)NCC3CCCO3)nc3c(sc4ccccc43)c2=O)cc1 (stereo unspecified),inactive

row,SMILES,Potency
1,CCC(=O)N1C(C(=O)O)CSC1c1ccc(OC)cc1 (stereo unspecified),"inconclusive: 35.5 µM [inhibitor, single point]"
2,COC(=O)c1sccc1NC(=O)CSc1ccccc1NS(=O)(=O)c1ccc(Br)cc1,"inconclusive: 11.2 µM [inhibitor, single point]"
3,Cc1cc2nc(-c3ccc[nH]c3=O)[nH]c2cc1C,"inconclusive: 35.5 µM [inhibitor, single point]"
4,Cc1cccc(Nc2cc(C)c3c(O)cccc3n2)c1C,"inconclusive: 15.8 µM [inhibitor, partial curve, poor fit]"
5,CC(C)N(C(=O)[C@H]1CC(CC(=O)NC(C)(C)C)C(=O)N2CCc3c([nH]c4ccccc34)[C@]12C)C(C)C (stereo partly specified),"inconclusive: 25.1 µM [inhibitor, single point]"
6,COc1cccc(CN2CCC(C(=O)NC(C)c3cccc4ccccc34)CC2)c1 (stereo unspecified),inactive
7,COc1cc(Cl)c(C)cc1NC(C)C(=O)Nc1cc(C(F)(F)F)ccc1N1CCOCC1 (stereo unspecified),"inconclusive: 0.1 µM [inhibitor, full curve, poor fit]"
8,Cc1ccc(C)c(CNC(=O)C2CCN(c3nc4ccccc4nc3C(F)(F)F)CC2)c1,"inconclusive: 0.631 µM [inhibitor, full curve, poor fit]"
9,O=C(c1cccc(F)c1)N1CCN(S(=O)(=O)c2ccc(C(F)(F)F)cc2)CC1,"inconclusive: 0.501 µM [inhibitor, full curve, poor fit]"
10,CCOC(=O)N1CCN(S(=O)(=O)c2ccc(C)c(C)c2C)CC1,"inconclusive: 6.31 µM [inhibitor, single point]"
11,COC(=O)[C@@]1(Cc2ccccc2)[C@@H]2C(=CC(=O)[C@H]2CC(=O)C(=O)N(C)C)CN1C(=O)c1ccccc1,"inconclusive: 35.5 µM [inhibitor, single point]"
12,COC(=O)C1CN(S(=O)(=O)c2ccc(C)cc2)CCN1S(=O)(=O)c1ccc(C)cc1 (stereo unspecified),"inconclusive: 6.31 µM [inhibitor, single point]"
13,Cc1ccccc1NS(=O)(=O)c1ccc2[nH]cc(C(=O)NC(C)c3ccccc3)c(=O)c2c1 (stereo unspecified),"inconclusive: 11.2 µM [inhibitor, partial curve, poor fit]"
14,C=C1C(=O)[C@]23C[C@H]1CCC2[C@@]1(C)C(C[C@@H]3O)[C@](C)(C(=O)O)CC[C@@H]1O (stereo partly specified),active: 10 µM
15,c1cncc(C2SCCCS2)c1,inactive
16,COCCCNC(=S)N1CCN(c2nc(-c3ccccc3)cs2)CC1,"inconclusive: 35.5 µM [inhibitor, single point]"
17,COc1cccc(NC(=O)c2cccc(N3C(=O)C4CCC(C)CC4C3=O)c2)c1 (stereo unspecified),inactive
18,O=C(O)CCC1OC(=O)C(O)=C1c1ccccc1 (stereo unspecified),inactive
19,Cc1ccc(S(=O)(=O)N2CCOC23CCN(S(=O)(=O)c2c(C)cc(C)cc2C)CC3)cc1,inactive
20,CCCCN(C)C(=O)C1CCC(CNS(=O)(=O)c2ccc3c(c2)CC(C)N3C(=O)C2CC2)CC1 (stereo unspecified),"inconclusive: 22.4 µM [inhibitor, single point]"
21,Nc1ccc2c(c1)C(=NO)c1cc([N+](=O)[O-])ccc1-2,"inconclusive: 11.2 µM [inhibitor, partial curve, poor fit]"
22,CC1(C(=O)NCc2ccc(C(F)(F)F)cc2)CCN1Cc1ccccc1OC(F)F (stereo unspecified),"inconclusive: 15.8 µM [inhibitor, single point]"
